# Out of some 420,000 compounds screened, about 50,000 (12%) were called active. This list was built around the results that the source calls inconclusive (neither active nor inactive); the mix of calls is not that of the screen. Calls follow the shape of the dose curve; as a rule, active = well fitted inhibition curve with a large enough effect; inconclusive = small, poorly fitted or top-dose-only effect; inactive = flat fitted curve, though single readings scatter. No potency is given beside an inconclusive call; the fits are too rough.
# Experiment: qHTS for Inhibitors of human tyrosyl-DNA phosphodiesterase 1 (TDP1): qHTS in cells in presence of CPT; also: nearly all actives have a fitted effect of over 55% in size
# Details: chicken DT40 Tdp1-/-;hTDP1 cells + 20 nM CPT, ATP luminescence, 48 h; activity change, negative = growth inhibition: at 46.2 µM (top of the series)
# Method in brief: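 Chicken DT40 Tdp1-/- cells stably complemented with human TDP1 were seeded at 400 cells/well in medium containing 20 nM camptothecin, exposed to pin-transferred compounds, and grown at 37 °C for at least 48 hr. Viability was read as ATP luminescence.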
# % is scaled to controls: 0 for no effect and ±100 for the full control effect; potency is read from the fitted curve at half-maximal effect; tags tell the direction and shape of the fitted curve.
Compound,"activity change, negative = growth inhibition",Potency
Cc1ccsc1C(=O)N[C@@H](C)c1nnc2ccccn12,inactive: 2.95%,
COc1ccc(OC)c(CNCc2c(C(=O)O)n(Cc3ccccc3)c3cc(OC)ccc23)c1,,"inconclusive [inhibitor, single point]"
CCN1CCCC1CNC(=O)c1cnn(-c2nccc(-c3ccccc3F)n2)c1C (configuration not stated),inactive: -2.46%,
CCCCO,inactive: -17.9%,
CCOc1ccc2[nH]c(=O)c(CN(CCc3ccccc3)C(=O)c3cnccn3)cc2c1,inconclusive: -30.5% [inhibitor],
c1cncc(-c2nc3cc4ccccc4cc3[nH]2)c1,,"inconclusive [inhibitor, single point]"
C=C1C2CC[C@@]3(C)C(c4ccoc4)OC(=O)C[C@@]13OC1CC(=O)C(C)(C)C(C(O)C(=O)OC)[C@]12C (some centres not stated),,"inconclusive [inhibitor, single point]"
CCC(=O)c1cc(F)c(N2CCN(C(=O)Cc3ccccc3)CC2)cc1C,,active: 20.6 µM
Cc1cccc(N2CCN(C(=O)CSc3nc4ccccc4nc3N3CC(C)OC(C)C3)CC2)c1C (configuration not stated),,active: 2.06 µM
CCOc1ccccc1CNC(=O)CCCN1C(=O)CCn2nc(-c3cccn3C)cc21,,active: 18.4 µM
C1CC(=NN=C2CCSCC2)CCS1,inactive: 9.69%,
CCCCCCCC(=O)CC[C@@H]1[C@@H](C/C=C\CCCC(=O)OC(C)C)[C@@H](O)C[C@H]1O,,active: 7.5 µM
Cn1c(=O)c2c(nc(NC3CCCCC3)n2Cc2ccccc2)n(C)c1=O,,"inconclusive [inhibitor, single point]"
Cc1cc2c(cc1C)N(C(=O)CCl)CC(=O)N2,,active: 2.31 µM
O=C(NCc1ccccc1)C(c1c(F)cccc1Cl)N(C(=O)c1csnn1)C1CC1 (configuration not stated),,"inconclusive [inhibitor, partial curve]"
CCCCC(=O)Nc1nc2c(s1)COc1ccccc1-2,inactive: -9.99%,
COC(=O)[C@@H]1CCCN1S(=O)(=O)Cc1ccccc1,inactive: -29.6%,
O=C(/C=C/c1c(F)cccc1Cl)Nc1ccc(S(=O)(=O)Nc2ncccn2)cc1,inactive: -0.749%,
COc1ccccc1/C=C/C(=O)N1CCc2cc(OC)c(OC)cc2C1C (configuration not stated),,"inconclusive [inhibitor, single point]"
c1ccc2c(-c3cncc4ccccc34)cncc2c1,,"inconclusive [inhibitor, single point]"
COC(=O)C1=C(C(=O)OC)[C@@H]2N(C)c3ccccc3[C@@]23C[C@@H](C(=O)OC)N(C(=O)c2cc(C)oc2C)C3=N1,inactive: -14%,
CCN(CC)S(=O)(=O)c1ccc(N2CCOCC2)c(NC(=O)COc2ccccc2C#N)c1,,"inconclusive [inhibitor, single point]"
S=C(NCCCc1cnc[nH]1)NCCCN(Cc1ccc(Cl)cc1)c1cc(-c2ccccc2)ccn1,,"inconclusive [inhibitor, single point]"
Cc1cc(-c2ccccc2)oc(=O)c1NC(=O)c1ccccc1,inactive: -25%,

Compound,"activity change, negative = growth inhibition",Potency
O=C(COC(=O)c1ccc(S(=O)(=O)N2CCc3ccccc3C2)cc1)NC(=O)NCc1ccco1,,"inconclusive [inhibitor, partial curve]"
COc1cc2c(cc1NC(=O)C(c1ccccc1)c1ccccc1)CCCC2,,"inconclusive [inhibitor, single point]"
Cc1ccc(NC(=O)Nc2cccs2)cc1,,active: 16.4 µM
Cc1ccc2nc(C3CCCN3Cc3nc(CCC(C)C)no3)[nH]c2c1 (configuration not stated),,"inconclusive [inhibitor, single point]"
CCCCC(=O)Nc1cnc(NC(=O)c2ccco2)cc1C,inconclusive: -26.7% [inhibitor],
c1ccc(CNCc2ccc(CNCc3ccccc3)cc2)cc1,,"inconclusive [inhibitor, single point]"
C=CCSc1nc2c(c(=O)[nH]c(=O)n2C)n1CC,,"inconclusive [inhibitor, single point]"
CCN(CC)c1ccc2cc(C(=O)NNC(=O)c3ccc(S(=O)(=O)N4CCCCC4)cc3)c(=O)oc2c1,,"inconclusive [inhibitor, single point]"
CCOc1ccc(N=Nc2ccc(O)c3ncccc23)cc1,,"inconclusive [inhibitor, single point]"
CCOC(=O)c1c(C)[nH]c(C)c1S(=O)(=O)N1CCCC(C(=O)N2CCN(c3cc(C)ccc3C)CC2)C1 (configuration not stated),,"inconclusive [inhibitor, single point]"
COC(=O)c1ccc(C)c(-n2c(=O)n(Cc3ccccc3)c(=O)c3[nH]cnc32)c1,,"inconclusive [inhibitor, single point]"
O=C(O)c1ccc(NCCC2=CCCCC2)c([N+](=O)[O-])c1,inactive: 4.17%,
CC(=O)c1ccc(N2CCN(C(=O)c3ccc4nc[nH]c4c3)CC2)cc1,,"inconclusive [inhibitor, single point]"
COCCCNC(=O)c1cc2c(=O)n(C)c3ccccc3c2n1C,,active: 18.4 µM
Cn1c2ccccc2c2ncn(CCC3=CCCCC3)c(=O)c21,,"inconclusive [inhibitor, single point]"
COc1ccccc1C1=Nn2c(nnc2C2CCCCC2)SC1,inactive: -30.2%,
CCOC(=O)c1nc(-c2ccccc2)oc1N(C)C,,"inconclusive [inhibitor, partial curve, poor fit]"
Cc1cc(CNC(=S)Nc2ccc(Br)cc2Cl)nn1C,,"inconclusive [inhibitor, single point]"
Brc1ccc(-c2cn3ccccc3n2)s1,,active: 7.31 µM
Cc1ccc(C(=O)O)cc1-n1c(=O)n(Cc2ccccc2)c(=O)c2[nH]cnc21,inactive: 0.0784%,
COC(=O)CC1=C(C(=O)OC)C(c2cc(OC)c(OC)cc2OC)C(C#N)=C(N)O1 (configuration not stated),inactive: 3.48%,
COc1cccc(Nc2ncc3nc(-c4ccccc4)c(=O)n(C)c3n2)c1,,"inconclusive [inhibitor, single point]"
CC1=CC(=O)C=C(C)C1=NOC(=O)/C=C\c1ccccc1,,active: 16.4 µM
CCC(CC)C(=O)Nc1ccccc1C(=O)OCc1cc(=O)n2nc(C3CCCCC3)sc2n1,,"inconclusive [inhibitor, single point]"

Compound,"activity change, negative = growth inhibition",Potency
CCOC(=O)c1ccc(NC(=S)P(=O)(c2ccccc2)c2ccccc2)cc1,,"inconclusive [inhibitor, single point]"
OC(CNc1ccccc1)Cn1ccc2ccccc21 (configuration not stated),,"inconclusive [inhibitor, partial curve]"
COc1ccc(C(=O)Nc2ccc(S(=O)(=O)NC(C)C)cc2)cc1,,"inconclusive [inhibitor, single point]"
CCCCOCCCNC(=O)C[C@@H]1C[C@@]2(C(=O)OCC)CCC=C2N(Cc2ccc3c(c2)OCO3)C1=O,,active: 20.6 µM
O=C(CSCc1ccc(Cl)cc1)Nc1ccc2c(c1)OCCO2,inactive: 3.89%,
O=C(CCNC(=O)c1ccccc1Cl)Nc1cc(C(F)(F)F)ccc1Cl,,"inconclusive [inhibitor, single point]"
O=C(COc1ccccc1)N(Cc1ccco1)c1ccc(O)cc1,,"inconclusive [inhibitor, single point]"
COc1ccc(Nc2oc(COc3ccccc3OC)nc2C#N)cc1,inactive: -27.3%,
O=C(c1ccco1)N1CCC[C@@]2(CCN(c3cccc(-c4ccccc4)c3)C2)C1,,"inconclusive [inhibitor, single point]"
O=[N+]([O-])c1ccc(S(=O)(=O)N2CCN(c3nc(-c4ccccc4)nc4ccccc34)CC2)cc1,inactive: 1.79%,
CCCCC(=O)Nc1nc(-c2ccc(S(=O)(=O)N3CCOCC3)cc2)cs1,,"inconclusive [inhibitor, single point]"
Cc1ccc(OCCCc2c(C)n[nH]c2C)cc1,,"inconclusive [inhibitor, single point]"
CCC(C(=O)NCCCN1CC(C)CC(C)C1)n1nc(C)c2sc3ccccc3c2c1=O (configuration not stated),,"inconclusive [inhibitor, single point]"
Cc1nnc(N/N=C\c2ccc(-c3cccc(C(=O)O)c3)o2)n1N,,"inconclusive [inhibitor, partial curve]"
COc1cccc(N(CC(=O)N2CCCCCC2)S(C)(=O)=O)c1,inactive: -7.3%,
CCOC(=O)C(C)(C)Sc1ncnc2nc[nH]c12,,"inconclusive [inhibitor, single point]"
CCn1c(SCC(=O)N2CCC(C)CC2)nc2c([nH]c3ccccc32)c1=O,,"inconclusive [inhibitor, single point]"
C=CCc1c(C)nc2ccc(C(=O)OCC)cc2c1Cl,,"inconclusive [inhibitor, single point]"
Cc1nnc(NC(=O)Cn2c(=O)sc3ccccc32)s1,inactive: 9.47%,
O=C(Nc1cccc(S(=O)(=O)N2CCCC2)c1)c1cncc(Br)c1,,"inconclusive [inhibitor, single point]"
Cc1cc(C(=O)NNC(=O)c2c(-c3c(Cl)cccc3Cl)noc2C)no1,inactive: -7.41%,
CC1CCCC(C)N1C(=O)CSc1nnc(COc2ccccc2)n1-c1ccccc1 (configuration not stated),,"inconclusive [inhibitor, single point]"
CN(CC(=O)Nc1cccc(F)c1)C(=O)c1ccc(NC2CC2)c([N+](=O)[O-])c1,,"inconclusive [inhibitor, single point]"
O=S(=O)(Nc1ccc2oc(-c3ccccc3)nc2c1)c1ccccc1,inactive: -28.1%,

# Source: PubChem BioAssay AID686979 (National Center for Advancing Translational Sciences (NCATS), 2013)
